In all, about 33,000 sequences were measured (“E-score (-0.5 to 0.5)”: median about -0.012, highest 2% from about 0.27 on). Some of the results follow.
The sequences below were run against T1, Vhr1 (UniProt P40522) (assay: PBM E-score (8-mer binding enrichment) (E-score (-0.5 to 0.5)); higher = stronger / more preferred TF binding; most listed sequences are background and not binding sites). Conditions: protein concentration: 200 nM; construct: GST-full length.
T1 sequence: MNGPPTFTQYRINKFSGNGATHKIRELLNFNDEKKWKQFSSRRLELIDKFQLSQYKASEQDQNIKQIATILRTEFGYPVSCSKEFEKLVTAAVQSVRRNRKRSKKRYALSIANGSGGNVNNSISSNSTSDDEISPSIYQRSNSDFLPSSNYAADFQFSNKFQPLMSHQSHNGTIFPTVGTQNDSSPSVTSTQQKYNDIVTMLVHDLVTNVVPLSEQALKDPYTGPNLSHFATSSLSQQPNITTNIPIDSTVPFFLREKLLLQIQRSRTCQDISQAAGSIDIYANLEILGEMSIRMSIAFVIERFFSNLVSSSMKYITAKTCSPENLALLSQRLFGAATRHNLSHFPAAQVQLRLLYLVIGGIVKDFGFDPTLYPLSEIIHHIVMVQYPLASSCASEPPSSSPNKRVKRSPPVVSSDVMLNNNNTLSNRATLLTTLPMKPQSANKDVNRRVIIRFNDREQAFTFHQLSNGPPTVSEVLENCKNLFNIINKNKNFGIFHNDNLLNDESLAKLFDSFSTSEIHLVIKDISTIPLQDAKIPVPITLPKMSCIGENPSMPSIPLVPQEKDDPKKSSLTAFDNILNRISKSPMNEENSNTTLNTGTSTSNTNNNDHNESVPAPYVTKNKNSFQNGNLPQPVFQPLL
Procedure, shortened: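 Yeast transcription factors carrying a GST tag, as full-length proteins or DNA-binding domains, were produced by PURExpress in vitro transcription/translation. About 100-200 nM protein was applied to universal all-10-mer Agilent arrays, double-stranded by primer extension on fresh or once-stripped slides. Bound protein was detected with fluorescent anti-GST, and scans were normalised with masliner. The Universal PBM Analysis Suite gave each ungapped eight-base word, pooled with its reverse complement, an E-score, a modified Wilcoxon-Mann-Whitney statistic.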

| Sequence | PBM E-score |
| --- | --- |
| CACTGGTC | 0.092 |
| AAATGACC | -0.0604 |
| GGCCTAAA | -0.246 |
| ACAGACAG | 0.179 |
| ACCAGTGG | 0.0651 |
| ACTGTCGA | 0.0975 |
| GACGTCGA | 0.12 |
| ATCCTTTC | -0.15 |
| GGCGGGGA | 0.409 |
| CCGATCTA | -0.0721 |
| ACAGTGGT | 0.184 |
| CGAAACGC | -0.216 |
| AGTAGCGG | 0.0569 |
| GAATGCCA | 0.0433 |
| AGGTATAG | 0.0604 |
| CACGACCA | 0.168 |
| CTACCTGC | -0.0175 |
| ATCCGAGA | 0.109 |
| AGCTGGGA | 0.0468 |
| CACAGCCA | 0.21 |
| AGGCCGTC | -0.0289 |
| CGCCCAGC | 0.208 |
| GAGTACCC | 0.0663 |
| GCGTAGGA | -0.00723 |
| CTGAACAC | 0.246 |

| Sequence | PBM E-score |
| --- | --- |
| AGCCATCC | 0.106 |
| ATCGATTG | 0.0202 |
| AACGCCAG | 0.234 |
| GCAAGGGC | -0.153 |
| CCGGCACC | 0.106 |
| CTTATGCC | -0.0185 |
| CACGCGCG | -0.00034 |
| TTGCCAAA | -0.0393 |
| AACCCTGA | 0.286 |
| TACAAACA | 0.194 |
| CATGCCTA | -0.0143 |
| CCCTCGCC | 0.0976 |
| GAACATGA | 0.206 |
| CCGCTTAC | -0.0818 |
| CGAAATTA | 0.0249 |
| CATCCCGG | 0.00723 |
| ACCTGTAG | -0.0729 |
| GTGGCAGA | -0.179 |
| ATGTGCCG | -0.123 |
| ACAAGAAG | 0.0641 |
| ATAAGAGG | 0.116 |
| CAAGTGCG | -0.0205 |
| CGCAGAAG | -0.0751 |
| ATACCGGA | 0.0174 |
| AGGCCGGG | -0.0907 |

| Sequence | PBM E-score |
| --- | --- |
| AGATCTCC | -0.149 |
| GGGTCGAA | -0.0102 |
| TCGCGCGA | 0.0513 |
| AGAACTAG | -0.218 |
| ATTGATCC | -0.0749 |
| TAACGTTA | -0.148 |
| CGAATACC | 0.164 |
| AGATCCAA | -0.136 |
| AAACTCAC | 0.0426 |
| ACGACTGC | -0.0133 |
| GAGCCACA | 0.155 |
| ATAGATTG | 0.226 |
| CGCCAAAG | -0.116 |
| CTGTGCTA | 0.0587 |
| GCCTTGTA | -0.204 |
| CTATCGCA | -0.0431 |
| ATGTGACA | 0.033 |
| CGTAGGTA | -0.112 |
| CCCAATCA | 0.0557 |
| CCCATAAC | 0.0584 |
| AGTTTATA | -0.0744 |
| ATCAGTAG | 0.0725 |
| ATCCGACC | 0.0441 |
| ACTGCGCA | 0.129 |
| AATTACTG | 0.166 |

| Sequence | PBM E-score |
| --- | --- |
| ACCCCATC | 0.107 |
| CATGGACC | -0.0938 |
| ACAGTTGA | 0.0298 |
| AGGTAAAG | -0.0742 |
| ACAAGCCC | -0.0271 |
| CCGGACCA | 0.07 |
| ACTTGCGA | 0.0242 |
| AAGTATAT | -0.00851 |
| ATGGCGTC | 0.136 |
| AGCTTCCG | -0.136 |
| CCATGTCG | 0.118 |
| CGAATTAA | -0.0894 |
| AAACGTGC | -0.204 |
| AACAGCCT | -0.132 |
| ATCCTGAC | 0.169 |
| GCCACCGA | 0.04 |
| AGACCGAC | 0.2 |
| AGCACTGA | 0.135 |
| ACGTTATC | -0.115 |
| CGCTAACA | -0.0839 |
| TCTTGCAA | 0.0699 |
| ATATTTTA | -0.0713 |
| CGAGTATA | 0.139 |
| ACATATGC | 0.0524 |
| CCCAGGGA | -0.0351 |

| Sequence | PBM E-score |
| --- | --- |
| CGAAATCC | -0.0182 |
| TGGAGTAA | 0.118 |
| GTGTCCGA | -0.143 |
| AAGACCTT | -0.226 |
| ATTCCGTC | -0.0753 |
| TGTCCAAA | -0.113 |
| GTTGCGCA | -0.043 |
| CCCGCTTC | 0.0365 |
| GTTAAAAA | -0.21 |
| ATCAATTC | -0.0503 |
| ACCAGCCT | -0.0798 |
| GCTTGTCC | -0.126 |
| CCAGCGAG | 0.181 |
| CTTGGAAA | -0.0499 |
| AGGAGGAT | -0.0351 |
| CACCGGGC | -0.0093 |
| GGGGGTGA | 0.132 |
| AACCCACT | 0.246 |
| AAGCCTAC | -0.234 |
| CCTGAACC | 0.246 |
| GTATACAC | 0.0427 |
| AGCCGGAG | 0.205 |
| AGGATCGA | -0.004 |
| ACAGGCAT | 0.0293 |
| CCTTGGAC | -0.222 |

| Sequence | PBM E-score |
| --- | --- |
| CTTAGTGC | -0.0448 |
| GGGGACAC | 0.0467 |
| AGCAAGCG | 0.0653 |
| GGCAGCCC | 0.0305 |
| CCATGTCA | -0.0314 |
| GAAGGCAC | -0.0554 |
| CTTGGTAA | -0.11 |
| CGGTTGGC | 0.195 |
| GGCAGAAC | 0.0769 |
| GAATCGTC | 0.137 |
| ATATTACA | 0.116 |
| AATATAAA | 0.146 |
| AGTCTAGC | -0.0402 |
| GACATCCC | 0.0989 |
| ATCTTTGG | -0.22 |
| GATCCTAA | -0.0149 |
| CCAGAGGG | -0.24 |
| CTCAACAA | 0.14 |
| ATTCGAGG | -0.246 |
| AACCATGG | 0.135 |
| AGCCACGG | -0.0818 |
| AGATCGTA | -0.2 |
| ATGGTAAT | -0.0166 |
| CGTACCAG | 0.00834 |
| AGCCGTCA | -0.0405 |

| Sequence | PBM E-score |
| --- | --- |
| TTGGACAA | -0.12 |
| ATGTACAT | 0.128 |
| GCGCTTGA | -0.0355 |
| ACTGAAGG | -0.109 |
| AAACCTGA | 0.133 |
| ACGCACGC | 0.164 |
| CGTAGCCA | -0.0392 |
| CAGTGCAG | -0.0455 |
| CTAGGTGA | 0.0418 |
| AGACCCAC | 0.0873 |
| ATTTTAGA | -0.283 |
| GGTCCAAA | -0.232 |
| CAGACTTC | -0.208 |
| GCAGACAA | -0.00778 |
| AGCACGCC | -0.0683 |
| AGGAGGTA | -0.0839 |
| AGAGAGAT | -0.101 |
| CCGCTTCA | 0.0058 |
| ATGGGTTA | 0.134 |
| GGCCCGAA | -0.0251 |
| GATCGGGC | -0.0757 |
| ACTTTTAA | -0.185 |

— the supplement of paper PMC3334620
